PubChem BioAssay (Tox21)
Inconclusive means that the source gave no clear call. Such entries were picked first, then a sample of the others. For some of these results: Potencies beside an inconclusive call are fits to weak or partial responses and may not hold up. Active and inactive are the calls of the source. Unless noted, calls come from the whole dose curve; as a rule, active = well fitted curve in the direction sought with a large enough effect in the repeat runs; inconclusive = weak or mixed curves; inactive = no such curve, though single readings can be large; an effect the other way counts as inactive or inconclusive.

Assays:
[1] = tested on: estrogen-related receptor alpha (ERRalpha) with PGC-1alpha coactivator, human; experiment: qHTS assay to identify small molecule antagonists of the estrogen related receptor signaling pathway with the pleiotropic PPARgamma coactivator (PGC) (AID 1224821; calls by dose curve; note: nearly all actives have a fitted effect of over 50% in size; note: potency is the fitted concentration of half-maximal effect)
In short: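 Luminescence from One-Glo luciferase reagent (30 min, room temperature) measured after 18 h compound treatment at 37 °C. Cells carry the PGC/ERR reporter and were seeded 6 h prior to dosing.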

[2] = qHTS assay to identify small molecule antagonists of the estrogen related receptor signaling pathway with the pleiotropic PPARgamma coactivator (PGC) cell viability counter screen (AID 1224822;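 note: potency is the fitted concentration of half-maximal effect; viability read after 17.5 h compound exposure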)
In short: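 17.5 h compound treatment of PGC/ERR cells at 37 C; readout CellTiter-Fluor fluorescence; run alongside the PGC/ERR antagonist screen to flag cytotoxic compounds.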

[3] = qHTS assay to identify small molecule agonists of the estrogen related receptor (ERR) signaling pathway (AID 1224820); note: potency is the fitted concentration of half-maximal effect
In short: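 After 6 h plating (2,000 cells/well) and 18 h compound treatment at 37 C, ERR cells were lysed with One-Glo and luminescence read after 30 min at room temperature.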

[4] = qHTS assay to identify small molecule agonists of the estrogen related receptor signaling pathway with the pleiotropic PPARgamma coactivator (PGC) (AID 1224823); note: potency is the fitted concentration of half-maximal effect
In short: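 Luminescence from One-Glo reagent (30 min, room temperature) was read after 18 h compound treatment at 37 C of PGC/ERR cells plated 6 h beforehand; compounds delivered in DMSO by pin tool.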

[5] = qHTS assay for small molecule agonists of the p53 signaling pathway (AID 651631; calls by dose curve; note: potency is the fitted concentration of half-maximal effect; nearly all actives have a fitted effect of over 15% in size); settings: HCT-116 p53RE-bla reporter, beta-lactamase FRET ratio, 16 h; series mostly up to 73.3 µM
In short: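 HCT-116 p53RE-bla reporter line, 16 h compound treatment at 37 °C, then fluorescence after 2 h with B/G FRET substrate.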

[6] = qHTS assay for small molecule disruptors of the mitochondrial membrane potential (AID 720635); settings: HepG2 mitochondrial membrane potential, Mito-MPS dye ratio; series mostly up to 83.2 µM
In short: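 Mitochondrial membrane potential tracked with Mito-MPS dye, red aggregates (ex 540/em 590 nm) against green monomers (ex 490/em 535 nm). Compound treatment 1 hr at 37C, dye 30 min in HepG2.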
Tags give direction and shape of the fitted curve or compound fluorescence and quenching.

## CCc1ccc(/C=C2/SC(=S)NC2=O)cc1
[1]
  Potency: inconclusive: 33.5 µM [inhibitor, single point]
[2]
  Potency: inconclusive: 31 µM [cytotoxic]

## CN(C)c1nc(N)c(C(=O)N=C(N)N)nc1Cl
[1]
  Potency: inconclusive: 11.9 µM [inhibitor, partial curve]

## COc1cccc(C(=O)NCCN2CCN(c3ccc(Cl)cc3)CC2)c1
[1]
  Potency: inconclusive: 21.1 µM [inhibitor, single point]

## CC(C)(NS(=O)(=O)c1ccc(Oc2ccc(F)cc2)cc1)C(=O)NO
[1]
  Potency: inconclusive: 0.0965 µM [inhibitor]

## Cn1c(=O)c2c(nc(/C=C/c3cccc(Cl)c3)n2C)n(C)c1=O
[3]
  Potency: inactive
[2]
  Potency: inconclusive: 24.6 µM [cytotoxic]
[4]
  Potency: inactive

## Oc1ccc2ccccc2c1SSc1c(O)ccc2ccccc12
[1]
  Potency: inconclusive: 29.8 µM [inhibitor, single point]
[2]
  Potency: inconclusive: 28.7 µM [cytotoxic]

## CN=c1nc(-c2ccccc2)n(-c2ccccc2)s1
[1]
  Potency: inconclusive: 25.6 µM [inhibitor]
[2]
  Potency: inconclusive: 22 µM [cytotoxic]
[4]
  Potency: inactive

## CNC(=O)[C@H]1O[C@@H](n2cnc3c(NCc4ccc(I)cc4)nc(Cl)nc32)[C@H](O)[C@@H]1O
[2]
  Potency: inconclusive: 25.1 µM [cytotoxic]

## CCCn1c(=O)[nH]c(=O)c2[nH]cnc21
[5]
  Potency: inconclusive: 1.19 µM [activator, single point]
[6]
  Potency: inactive
[1]
  Potency: inactive

## Cc1cc(NC(=O)Nc2ccc3c(ccn3C)c2)sn1
[3]
  Potency: active: 10.2 µM
[4]
  Potency: inconclusive: 14.4 µM [activator]

## N.N.N.N.N.N.N.N.N.N.N.N.N.N.O.O.[Cl-].[Cl-].[Cl-].[Cl-].[Cl-].[Cl-].[Ru+4].[Ru+5].[Ru+5]
[2]
  Potency: inconclusive: 24.6 µM [cytotoxic]

## CC1CN(S(=O)(=O)c2cccc3cnccc23)CCN1 (stereo not drawn)
[1]
  Potency: inconclusive: 33.5 µM [inhibitor, partial curve, poor fit]

## O=Nc1ccc2oc(=O)ccc2c1
[3]
  Potency: inconclusive: 14.4 µM [activator]
[4]
  Potency: inconclusive: 27.6 µM [activator]

## O=Nc1c(-c2c(O)[nH]c3ccccc23)[nH]c2ccccc12
[3]
  Potency: active: 2.87 µM
[1]
  Potency: inactive
[2]
  Potency: active: 13.9 µM
[4]
  Potency: inconclusive: 3.35 µM [activator, partial curve, poor fit]

## OCC1O[C@H]([S-])C(O)[C@@H](O)[C@@H]1O.[Au+] (stereo partly drawn)
[2]
  Potency: active: 9.08 µM
